Laboratory results as given in the supplement of paper PMC7826260.
Some of the results follow. Cleavage of a single-stranded DNA pool by Rep nickase domains was read by sequencing for 1 h at 37 °C with 3 µM enzyme; only the middle of the 90-letter strands is printed. Uncut reads are compared with the no-enzyme pool on a log2 scale; strong cutting gives strongly negative numbers. There is no active / inactive call. The scaling is to total reads; where an enzyme cuts many sequences, the uncut ones exceed 0.

Assays:
Experiment in all cases: uncleaved DNA left, log2 of reads against the no-enzyme library (log2 ratio); higher = less cleavage (more negative = more Rep cleavage of the k-mer); sequences stand for … in CTCGTCCG…ACCGGAGA
[1] = test system: T1, Rep nickase domain of Muscovy duck circovirus
T1 sequence (residues 1-111 of Rep, tag left off): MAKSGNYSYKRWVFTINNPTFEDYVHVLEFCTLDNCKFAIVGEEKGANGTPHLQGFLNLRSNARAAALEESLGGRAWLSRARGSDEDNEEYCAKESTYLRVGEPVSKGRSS
Method: (§1)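 A pool of 90-nt single-stranded DNAs with seven random bases just before the constant AC of the nick site (name = the seven bases) was cut by 3 µM recombinant His6-SUMO-tagged Rep nickase domain (300 nM DNA, 50 mM HEPES pH 8.0, 50 mM NaCl, 1 mM MnCl2, 1 h, 37 °C, three replicates). Uncut DNA was amplified and sequenced.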

[2] = test system: T2, Rep nickase domain of banana bunchy top virus
T2 sequence (residues 1-94 of Rep, tag left off): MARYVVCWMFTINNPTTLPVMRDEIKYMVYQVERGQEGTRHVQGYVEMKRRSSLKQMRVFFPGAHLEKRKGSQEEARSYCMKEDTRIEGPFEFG
Method: as §1

[3] = test system: T3, Rep nickase domain of cabbage leaf curl virus
T3 sequence (residues 1-116 of Rep, tag left off): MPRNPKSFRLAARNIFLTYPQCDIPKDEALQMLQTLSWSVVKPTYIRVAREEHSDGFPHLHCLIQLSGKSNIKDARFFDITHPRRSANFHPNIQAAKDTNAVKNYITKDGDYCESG
Method: as §1

[4] = test system: T4, Rep nickase domain of chickpea chlorotic dwarf virus
T4 sequence (residues 1-124 of Rep, tag left off): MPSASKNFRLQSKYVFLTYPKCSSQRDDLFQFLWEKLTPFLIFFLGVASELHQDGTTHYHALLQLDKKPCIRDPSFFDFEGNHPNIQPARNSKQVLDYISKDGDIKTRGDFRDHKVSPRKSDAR
Method: as §1

[5] = test system: T5, Rep nickase domain of faba bean necrotic yellows virus
T5 sequence (residues 1-98 of Rep, tag left off): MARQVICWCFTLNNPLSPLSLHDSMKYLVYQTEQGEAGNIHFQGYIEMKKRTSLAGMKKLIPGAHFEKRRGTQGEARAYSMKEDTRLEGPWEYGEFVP
Method: as §1

[6] = test system: T6, Rep nickase domain of maize striate mosaic virus
T6 sequence (residues 1-117 of Rep, tag left off): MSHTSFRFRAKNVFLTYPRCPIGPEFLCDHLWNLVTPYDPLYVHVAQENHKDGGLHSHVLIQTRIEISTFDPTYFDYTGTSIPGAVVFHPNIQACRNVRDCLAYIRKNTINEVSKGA
Method: as §1

[7] = test system: T7, Rep nickase domain of porcine circovirus 2
T7 sequence (residues 2-116 of Rep, tag left off): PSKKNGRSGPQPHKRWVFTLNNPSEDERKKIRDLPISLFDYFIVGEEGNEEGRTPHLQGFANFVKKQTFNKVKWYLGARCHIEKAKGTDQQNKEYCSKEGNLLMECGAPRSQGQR
Method: as §1

[8] = test system: T8, Rep nickase domain of tomato golden mosaic virus
T8 sequence (residues 1-124 of Rep, tag left off): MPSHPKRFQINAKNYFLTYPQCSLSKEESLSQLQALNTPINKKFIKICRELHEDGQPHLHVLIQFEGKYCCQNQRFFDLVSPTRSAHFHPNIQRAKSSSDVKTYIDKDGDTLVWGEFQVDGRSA
Method: as §1

[9] = test system: T9, Rep nickase domain of tomato yellow leaf curl virus
T9 sequence (residues 1-136 of Rep, tag left off): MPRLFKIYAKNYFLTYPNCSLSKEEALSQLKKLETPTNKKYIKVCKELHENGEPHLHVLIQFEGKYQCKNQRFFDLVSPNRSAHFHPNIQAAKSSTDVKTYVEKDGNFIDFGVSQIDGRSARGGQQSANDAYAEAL
Method: as §1

[10] = test system: T10, Rep nickase domain of wheat dwarf virus
T10 sequence (residues 1-137 of Rep, tag left off): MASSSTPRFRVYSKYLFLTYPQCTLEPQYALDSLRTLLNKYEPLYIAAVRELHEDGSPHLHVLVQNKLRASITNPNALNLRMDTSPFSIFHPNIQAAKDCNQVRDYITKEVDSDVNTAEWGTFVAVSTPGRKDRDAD
Method: as §1

| Sequence | uncleaved DNA left (log2) [1] | uncleaved DNA left (log2) [2] | uncleaved DNA left (log2) [3] | uncleaved DNA left (log2) [4] | uncleaved DNA left (log2) [5] | uncleaved DNA left (log2) [6] | uncleaved DNA left (log2) [7] | uncleaved DNA left (log2) [8] | uncleaved DNA left (log2) [9] | uncleaved DNA left (log2) [10] |
| --- | --- | --- | --- | --- | --- | --- | --- | --- | --- | --- |
| CTGACCA | -0.0525 | 0.0464 | -0.0454 | 0.158 | -0.0567 | 0.217 | 0.00904 | -0.0393 | -0.0336 | -0.0191 |
| TACTCGA | -0.135 | -0.123 | -0.682 | -1.32 | -0.0197 | -1.02 | -0.351 | -0.0232 | -0.0503 | -0.14 |
| GCTTGCA | 0.0748 | 0.0235 | -0.554 | -0.41 | 0.00359 | -1.19 | 0.127 | -0.0969 | 0.0438 | -0.0298 |
| ACCGATC | 0.0865 | 0.0626 | -0.0483 | 0.0853 | 0.129 | -0.584 | 0.196 | 0.185 | 0.0498 | 0.137 |
| TCAGGAG | 0.0314 | 0.0129 | -0.0183 | 0.862 | -0.0205 | 0.198 | 0.158 | -0.0494 | -0.138 | -0.0359 |
| GATTGGC | 0.0647 | 0.0318 | -0.0966 | 0.0178 | 0.0377 | -0.676 | 0.103 | -0.00277 | 0.131 | 0.0166 |
| GATAATA | 0.00997 | 0.0192 | 0.157 | -0.941 | -0.0406 | 0.892 | -0.0914 | -0.00174 | 0.0188 | 0.0476 |
| GGCCAAA | -0.174 | 0.0265 | 0.597 | 1.38 | -0.0764 | 1.68 | 0.155 | -0.00411 | 0.0634 | 0.13 |
| AAATTTG | 0.0211 | 0.0269 | -0.509 | -0.7 | 0.0532 | -1.19 | 0.132 | 0.0564 | 0.0858 | 0.0785 |
| TTGAACC | -0.0234 | 0.0896 | 0.18 | -0.426 | 0.128 | -0.328 | -0.358 | 0.0265 | 0.0576 | 0.0734 |
| GTCTCGA | 0.12 | 0.158 | 0.353 | 0.669 | 0.122 | 1.48 | 0.212 | 0.197 | 0.119 | 0.199 |
| GCTATGG | 0.0302 | -0.0696 | -0.0468 | 0.355 | -0.0451 | -0.319 | 0.175 | -0.00816 | -0.118 | -0.0387 |
| AAGGTCT | 0.125 | 0.149 | 0.17 | -0.0105 | 0.135 | 1.1 | -0.389 | 0.136 | 0.0221 | 0.126 |
| TCTCATG | -0.0681 | -0.166 | -0.422 | -0.886 | 0.0153 | -1.05 | -0.0132 | -0.0988 | -0.152 | -0.151 |
| TCCTACG | -0.0607 | -0.191 | -0.993 | -1.06 | -0.0852 | -1.16 | -0.0019 | -0.131 | -0.197 | -0.149 |
| CGCGGGG | -0.0725 | -0.144 | 0.492 | 0.774 | -0.113 | 1.1 | -0.0278 | -0.000632 | -0.264 | 0.0251 |
| CAGGTTA | -0.0146 | -0.101 | 0.141 | -0.0261 | -0.13 | 0.895 | -0.2 | -0.0917 | -0.0973 | -0.0553 |
| TAATTTG | -0.00774 | -0.0414 | -1.87 | -2.52 | 0.145 | -1.64 | -0.00899 | -0.0581 | 0.0387 | -0.254 |
| TCAAGTA | 0.0595 | 0.169 | 0.104 | -0.717 | 0.159 | -0.372 | -0.0012 | 0.125 | 0.139 | 0.0356 |
| AACATAA | 0.132 | 0.115 | -0.0924 | -0.798 | 0.169 | -0.651 | 0.132 | 0.125 | 0.125 | 0.144 |
| GTTGATT | 0.128 | -0.0194 | 0.269 | 0.642 | -0.115 | 1.54 | -0.0543 | 0.0452 | 0.0553 | 0.0789 |
| GAGCTGC | 0.0499 | -0.00916 | 0.235 | 1.16 | 0.0235 | 1.1 | 0.137 | -0.016 | -0.00641 | 0.05 |
| TTATATG | 0.0239 | 0.0115 | -0.422 | -0.55 | 0.0609 | -1.13 | 0.224 | -0.0302 | 0.0582 | -0.0102 |
| CGATAAG | -0.0952 | 0.0596 | -0.661 | -0.196 | 0.055 | -0.944 | 0.208 | 0.126 | 0.136 | -0.0302 |
| GGATTTC | -0.0179 | -0.0275 | 0.481 | 1.14 | 0.00594 | 1.77 | 0.109 | 0.0016 | 0.0609 | 0.102 |
| TTTCTTC | 0.0557 | -0.0662 | 0.112 | -0.354 | 0.0571 | -0.438 | 0.0243 | -0.0872 | 0.0167 | -0.0162 |
| TCTGTAA | 0.0633 | 0.0198 | -0.0216 | -0.48 | -0.00938 | -0.179 | -0.146 | -0.0422 | 0.01 | 0.064 |
| AATGCCA | 0.00393 | 0.0138 | -0.191 | -1.08 | -0.00559 | -0.491 | -0.0986 | 0.0554 | -0.044 | -0.0877 |
| GGTGCCA | 0.13 | 0.0662 | 0.608 | 1.34 | 0.0497 | 1.86 | 0.172 | -0.0124 | 0.065 | 0.13 |
| TTGTCGC | -0.0691 | -0.155 | -0.941 | -0.514 | -0.0506 | -1.04 | -0.00992 | -0.199 | -0.0132 | -0.291 |
